Measurements: PubChem BioAssay AID686979 (National Center for Advancing Translational Sciences (NCATS), 2013)
The campaign covered roughly 420,000 compounds. About 50,000 (12%) were called active. Inconclusive means that the source gave no clear call. Such entries were picked first, then a sample of the others. The call rests on the fitted dose curve; in most records, active means well fitted inhibition curve with a large enough effect; inconclusive means small, poorly fitted or top-dose-only effect; inactive means flat fitted curve, though single readings scatter. Potencies of inconclusive entries are left out as doubtful fits.

Test: qHTS for Inhibitors of human tyrosyl-DNA phosphodiesterase 1 (TDP1): qHTS in cells in presence of CPT; further: nearly all actives have a fitted effect of over 55% in size
Conditions: chicken DT40 Tdp1-/-;hTDP1 cells + 20 nM CPT, ATP luminescence, 48 h; activity change, negative = growth inhibition: at 46.2 µM (top of the series)
Method in brief: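 Chicken DT40 Tdp1-/- cells complemented with human TDP1, 400 cells/well, exposed to compounds plus 20 nM camptothecin for at least 48 h at 37 C; viability read as ATP content by CellTiter-Glo luminescence.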
On the % scale 0 is the no-effect control and ±100 the full control effect; potency means the concentration at half of the fitted maximal effect; tags describe the fitted curve by direction and shape.

| Structure (SMILES) | Potency | activity change, negative = growth inhibition |
| --- | --- | --- |
| CC(C)=CCC[C@H](C)C[C@@H]1Cc2[nH][nH]c(=O)c2[C@H](c2ccc(Cl)cc2)O1 | inconclusive [inhibitor, single point] | – |
| CC(Oc1ccccc1)C(=O)N[C@@H]1C(=O)N2[C@@H]1SC(C)(C)[C@@H]2C(=O)OCc1ccccc1 (stereo not given in full) | inconclusive [inhibitor, single point] | – |
| CCCC(C(=O)NC(C)(C)C)N(Cc1ccccc1Cl)C(=O)c1snc(C(N)=O)c1N (stereo not given) | inconclusive [inhibitor, single point] | – |
| O=C(CSc1cn(CCNC(=O)c2c(F)cccc2F)c2ccccc12)Nc1ccc2c(c1)OCCO2 | inconclusive [inhibitor, single point] | – |
| COc1ccccc1Nc1nc(C2(C)CCC(=O)O2)cs1 (stereo not given) | – | inactive: -6.55% |
| CCOC(=O)c1sc(NC(=O)CSC(=S)N2CCN(C)CC2)nc1C | active: 25.9 µM | – |
| O=C(CSc1ccccc1)Nc1ccc2sccc2c1 | – | inactive: 2.19% |
| Cc1ccc(NC(=O)c2oc3ccccc3c2NC(=O)c2cc3ccccc3o2)cc1 | inconclusive [inhibitor, partial curve] | – |
| Cc1cc(C(=O)COC(=O)c2csc3c2CCCC3)c(C)n1C | inconclusive [inhibitor, partial curve] | – |
| C[C@@H]1COc2cc(N3CCC[C@H]3CO)ccc2S(=O)(=O)N1 | – | inactive: 2.64% |
| CN(CCCN1CCOCC1)C(=O)c1ccc2nc(Cc3cccc(Cl)c3)oc2c1 | inconclusive [inhibitor, single point] | – |
| COc1cccc(NC(=O)NNC(=O)COc2ccc3ccccc3c2)c1 | inconclusive [inhibitor, full curve, poor fit] | – |
| O=C(Nc1cnn(Cc2c(Cl)cccc2Cl)c1)C(c1ccccc1)c1ccccc1 | active: 23.1 µM | – |
| CCCCc1nnc(SCc2cc(=O)c3cc(C(=O)OCC)ccc3[nH]2)n1C | – | inactive: -5.06% |
| Cc1ccccc1NC(NC(=O)OCCn1c([N+](=O)[O-])cnc1C)C(Cl)(Cl)Cl (stereo not given) | – | inactive: -11.7% |
| Cc1cc(S(=O)(=O)Nc2ccc(C(=O)N3CC(C)OC(C)C3)cc2)ccc1F (stereo not given) | inconclusive [inhibitor, single point] | – |
| O=C(NCc1cccnc1)C1CCN(Cc2cc3ccccc3n2Cc2cccc(Cl)c2)CC1 | inconclusive [inhibitor, single point] | – |
| COc1ccc(/C(C)=N/NC(=O)c2ccc(CSc3cccc4cccnc34)cc2)cc1OC | inconclusive [inhibitor, single point] | – |
| C/C(=C\c1ccco1)C1C(C#N)=C(N)Oc2n[nH]c(-c3ccccc3)c21 (stereo not given) | – | inactive: -23.9% |
| O=C(Cn1cnc2c(OCc3ccccc3)ncnc21)NCCCn1ccnc1 | inconclusive [inhibitor, full curve, poor fit] | – |
| Cc1cc2nc(C3CCCN(C(=S)Nc4ccccc4)C3)[nH]c2cc1C (stereo not given) | inconclusive [inhibitor, single point] | – |
| CC(=O)Nc1cccc(-c2ccnc3c2CC(C)(C(=O)NCc2cccs2)O3)c1 (stereo not given) | inconclusive [inhibitor, full curve, poor fit] | – |
| Cc1cc(=O)[nH]c(SCC(=O)/C=C2\N(C)c3ccccc3C2(C)C)n1 | inconclusive [inhibitor, full curve] | – |

| Structure (SMILES) | Potency | activity change, negative = growth inhibition |
| --- | --- | --- |
| O=C(CCNS(=O)(=O)c1cccc2nonc12)NCc1cccs1 | – | inactive: -13.7% |
| Cc1ccc(-n2c(SCC(=O)NCC3CCCO3)nc3ccccc3c2=O)cc1C (stereo not given) | inconclusive [inhibitor, single point] | – |
| Cc1nc([N+](=O)[O-])c(C(=O)OCc2ccc(C#N)cc2)n1C | – | inactive: -2.97% |
| CCCNC(=O)c1onc(CSc2ccc(F)c(F)c2)c1C(=O)NCCC | active: 14.6 µM | – |
| C=CCC(C(=O)NC(C)c1ccccc1)C(=O)NC(C)c1ccccc1 (stereo not given) | inconclusive [inhibitor, partial curve] | – |
| O=C(Nc1ccc(Cl)cc1)Nc1nnc(/C=C/c2ccccc2)s1 | – | inconclusive: -36.8% [inhibitor] |
| O=C(NCc1cccs1)c1ccc(CS(=O)Cc2ccc(Cl)cc2)o1 (stereo not given) | inconclusive [inhibitor, single point] | – |
| COc1cc(-c2nnc(COC(=O)c3cccn3C)o2)cc(OC)c1OC | inconclusive [inhibitor, single point] | – |
| O=c1[nH]c2ccccc2n2cnnc12 | – | inactive: -2.61% |
| CCOc1cc(C)nc(NCCc2ccc(OC)c(OC)c2)n1 | inconclusive [inhibitor, single point] | – |
| CN(CC(=O)Nc1c(Cl)cccc1Cl)C(=O)c1sccc1-c1ccccc1 | inconclusive [inhibitor, single point] | – |
| CCN(CC)S(=O)(=O)c1ccc(-c2nnc(SCC(=O)Nc3nc(C)cs3)o2)cc1 | – | inconclusive: -32.7% [inhibitor] |
| CC(C)n1c(=O)[nH]c2ccccc21 | – | inactive: -11.5% |
| C[C@@H]1CCCCO[C@H](CN(C)C(=O)Cc2ccccc2)[C@@H](C)CN([C@H](C)CO)C(=O)c2cc(N(C)C)ccc2O1 | – | inactive: 3.21% |
| CCCC(NS(=O)(=O)c1ccc(-c2ccc(=O)[nH]n2)s1)c1cccs1 (stereo not given) | – | inactive: -2.64% |
| Cc1nn(C)c(C)c1S(=O)(=O)N1CCC(C(=O)NCCC2=CCCCC2)CC1 | active: 18.4 µM | – |
| O=C(COC(=O)c1ccc2ncsc2c1)NCc1ccc(F)cc1 | inconclusive [inhibitor, single point] | – |
| Cc1cc(C(=O)CSc2nnc(-c3ccc(Cl)cc3)n2CC2CCCO2)c(C)n1C (stereo not given) | active: 11.6 µM | – |
| N=C1C(c2ccccc2)=C(O)CN1CCCO | inconclusive [inhibitor, single point] | – |
| COc1cc(-c2nnc(SCC(=O)Nc3ccc(F)c(Cl)c3)o2)cc(OC)c1OC | – | inactive: -3.67% |
| Cc1cc(C)c(C)c(Cn2c(CO)nc3ccccc32)c1C | inconclusive [inhibitor, single point] | – |
| CCOC(=O)/C(C#N)=C/c1c(Oc2cccc(C)c2)nc2c(C)cccn2c1=O | inconclusive [inhibitor, single point] | – |
